Data: the supplement of paper PMC4967469
IC50 is the fitted dose that halves viability relative to control wells, and lower means more sensitive; where the fit passes the top or lowest dose, that dose stands as a limit. The AUC spans the tested range (256-fold, ending at the top dose) of the same fit; it is 1 without any effect and falls as sensitivity rises. An inferred top dose comes from the curve model; the source does not state it.

compound: C=CC(=O)Nc1ccc(C(=O)c2sc(Nc3ccc(N4CCN(C)CC4)cc3OC)nc2N)cc1 [XMD15-27]; test: Viability of human cancer cell lines after 72 h of drug (GDSC screen); settings: top dose 10.24 µM; top dose inferred
Method: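 Human cancer cell lines in 384-well plates, medium with 10% serum, drug for 72 h over a 256-fold dose range (nine 2-fold or five 4-fold steps up to the top dose). Adherent lines were fixed and stained with the nucleic acid dye Syto60, suspension lines read with resazurin; signal relative to control wells, capped at 0 and 100%. One two-parameter sigmoid per drug and line, fitted in a mixed model over all curves with the slope shared within a line.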

In order of falling AUC:
1. GP5d (large intestine, adherent)  0.991
2. Caov-3 (ovary, adherent)  0.991
3. TGBC24TKB (biliary tract, adherent)  0.99
4. SW872 (soft tissue, adherent)  0.989
5. HeLa (cervix, adherent)  0.989
6. GCT (soft tissue, adherent)  0.989
7. CAL-148 (breast, suspension)  0.989
8. HCC70 (breast, adherent)  0.988
9. HO-1-N-1 (head and neck, adherent)  0.988
10. BICR31 (head and neck, adherent)  0.988
11. IST-MES1 (mesothelioma, adherent)  0.988
12. Daoy (medulloblastoma, adherent)  0.988
13. NCI-H2196 (small cell lung carcinoma, adherent)  0.987
14. SN12C (kidney, adherent)  0.986
15. IM-95 (stomach, adherent)  0.986
16. KYSE-180 (oesophagus, adherent)  0.986
17. H2803 (mesothelioma, adherent)  0.985
18. KYSE-270 (oesophagus, adherent)  0.985
19. U251 (glioma, adherent)  0.985
20. RT-112 (bladder, adherent)  0.983
21. LC-2-ad (lung adenocarcinoma, adherent)  0.982
22. NCI-H1793 (lung adenocarcinoma, adherent)  0.982
23. COR-L303 (small cell lung carcinoma, suspension)  0.982
24. H2818 (mesothelioma, adherent)  0.982
25. H2804 (mesothelioma, adherent)  0.981
26. HPAF-II (pancreas, adherent)  0.98
27. BC-3 (B-cell lymphoma, suspension)  0.98
28. PL-21 (acute myeloid leukaemia, suspension)  0.98
29. Hs-445 (Hodgkin lymphoma, suspension)  0.979
30. CAMA-1 (breast, adherent)  0.979
31. NCI-H1915 (large cell lung carcinoma, adherent)  0.978
32. SW1463 (large intestine, adherent)  0.978
33. YMB-1-E (breast, adherent)  0.977
34. Hs940-T (melanoma, adherent)  0.976
35. NCI-H196 (small cell lung carcinoma, adherent)  0.976
36. 769-P (kidney, adherent)  0.972
37. HCC1599 (breast, suspension)  0.971
38. T-24 (bladder, adherent)  0.969
39. ML-1 (thyroid, adherent)  0.955
40. A204 (rhabdomyosarcoma, adherent)  0.952
41. SCC-3 (B-cell lymphoma, suspension)  0.912
42. NCI-H2228 (lung adenocarcinoma, adherent)  0.891

H2803 (mesothelioma, adherent) and H2804 (mesothelioma, adherent) cannot be ordered by IC50: > 10.2 µM for the first, > 10.2 µM for the second.

Hs-445 (Hodgkin lymphoma, suspension) and SN12C (kidney, adherent) cannot be ordered by IC50: > 10.2 µM for the first, > 10.2 µM for the second.

KYSE-270 (oesophagus, adherent) and 769-P (kidney, adherent) cannot be ordered by IC50: > 10.2 µM for the first, > 10.2 µM for the second.

ML-1 (thyroid, adherent) and CAMA-1 (breast, adherent) cannot be ordered by IC50: > 10.2 µM for the first, > 10.2 µM for the second.

HCC70 (breast, adherent) and IM-95 (stomach, adherent) cannot be ordered by IC50: > 10.2 µM for the first, > 10.2 µM for the second.

SW872 (soft tissue, adherent) and LC-2-ad (lung adenocarcinoma, adherent) cannot be ordered by IC50: > 10.2 µM for the first, > 10.2 µM for the second.

“NCI-H1793 (lung adenocarcinoma, adherent)” and RT-112 (bladder, adherent) cannot be ordered by IC50: > 10.2 µM for the first, > 10.2 µM for the second.

“NCI-H1915 (large cell lung carcinoma, adherent)” and GP5d (large intestine, adherent) cannot be ordered by IC50: > 10.2 µM for the first, > 10.2 µM for the second.

HCC1599 (breast, suspension) and HO-1-N-1 (head and neck, adherent) cannot be ordered by IC50: > 10.2 µM for the first, > 10.2 µM for the second.

T-24 (bladder, adherent) and YMB-1-E (breast, adherent) cannot be ordered by IC50: > 10.2 µM for the first, > 10.2 µM for the second.

Going from SCC-3 (B-cell lymphoma, suspension) to HPAF-II (pancreas, adherent), the IC50 rises from 7.27 µM to > 10.2 µM.

BICR31 (head and neck, adherent) and Hs940-T (melanoma, adherent) cannot be ordered by IC50: > 10.2 µM for the first, > 10.2 µM for the second.

U251 (glioma, adherent) and BC-3 (B-cell lymphoma, suspension) cannot be ordered by IC50: > 10.2 µM for the first, > 10.2 µM for the second.

Caov-3 (ovary, adherent) and “NCI-H2196 (small cell lung carcinoma, adherent)” cannot be ordered by IC50: > 10.2 µM for the first, > 10.2 µM for the second.

SW1463 (large intestine, adherent) and IST-MES1 (mesothelioma, adherent) cannot be ordered by IC50: > 10.2 µM for the first, > 10.2 µM for the second.

“COR-L303 (small cell lung carcinoma, suspension)” and “PL-21 (acute myeloid leukaemia, suspension)” cannot be ordered by IC50: > 10.2 µM for the first, > 10.2 µM for the second.

Daoy (medulloblastoma, adherent) and HeLa (cervix, adherent) cannot be ordered by IC50: > 10.2 µM for the first, > 10.2 µM for the second.

“NCI-H2228 (lung adenocarcinoma, adherent)” and H2818 (mesothelioma, adherent) cannot be ordered by IC50: > 10.2 µM for the first, > 10.2 µM for the second.

A204 (rhabdomyosarcoma, adherent) and GCT (soft tissue, adherent) cannot be ordered by IC50: > 10.2 µM for the first, > 10.2 µM for the second.

“NCI-H196 (small cell lung carcinoma, adherent)” and CAL-148 (breast, suspension) cannot be ordered by IC50: > 10.2 µM for the first, > 10.2 µM for the second.

TGBC24TKB (biliary tract, adherent) and KYSE-180 (oesophagus, adherent) cannot be ordered by IC50: > 10.2 µM for the first, > 10.2 µM for the second.
